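Briefly, cells in 96-well plates were exposed to five compound concentrations for 48 h, and endpoints were estimated by linear interpolation. The concentration for 50% growth inhibition is given as GI50. TGI is the concentration that stops growth completely.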
Tested on: NCI-H322M lung
Experiment: NCI anticancer screen, dose series, 48 h

`Cc1ccc(NC(=O)c2ccc(CN3CCN(C)CC3)c(I)c2)cc1Oc1ccc(-c2[nH]nc3ncnc(N)c23)cc1` gave a GI50 of 1.91 µM and a TGI of 3.39 µM.

Reference: PubChem BioAssay (NCI)
